# The list shows a part of the results.
# B1: FliD (Clostridium difficile) (protein)
# chain: MSSISPVRVTGLSGNFDMEGIIEASMIRDKEKVNKAKQDQQIVKWKQEIYRDIIKESKNLYDKYLNGDSPNSITNKKAYSATRITSSDESIIVAKGSAGAEKINYQFAVSQMAEPAKVTIKLNSSDPIVQQFPPNASGASSLNIGGVNIPISEQDTTSTIVSKINSLCADNDIRASYSEMTGELIISRKQTGSSSDIDLKVIGNDSLAGQIASDNGITFTTDASGTKSAVVYGKNLEADVTDDQGRVTHISKEQNSFKIDNIDYNVNSKGSAKLVSVTDTEEATKNMKAFVDDYNALMDKVYGLVTTKKSKDYPPLTDEQKDDMTTEEIEKWEKKAKEGILRNDDELRAFVEDIQSMFFGDADTIIALRKLGISEHENYNKKGQISFNADTFSKALIDDSDKVYKALAGYSSNYDDKGMFEKLKKIVFEYSGSSASKLTKKAGMENSSSASQNVYSKQIAEQERNISRLVEKMNDKEKRLYAKYSALESLLNKYSSQMNYFSQAQGN
# Key:
# Assay in all cases: glycan array binding signal (z-score within array); higher = stronger binding
# Conditions in all cases: glycan notation: IUPAC condensed, linker removed
# Fuc(a1-2)Gal = molecular target: Fuc(a1-2)Gal
# Procedure, shortened: (§1)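 The binding signal is a Z-score computed within each array and averaged over linkers. Arrays of the same protein sequence at different concentrations or buffers were also averaged together. Data originate from 3228 arrays in the Consortium for Functional Glycomics database, kept only where the protein sequence was available.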
# Fuc(a1-2)Gal(b1-3)GalNAc = molecular target: Fuc(a1-2)Gal(b1-3)GalNAc
# Procedure, shortened: as §1
# [1] = molecular target: Fuc(a1-2)Gal(b1-3)GalNAc(a1-3)[Fuc(a1-2)]Gal(b1-4)Glc
# Procedure, shortened: as §1
# [2] = molecular target: Fuc(a1-2)Gal(b1-3)GalNAc(a1-3)[Fuc(a1-2)]Gal(b1-4)GlcNAc
# Procedure, shortened: as §1
# [3] = molecular target: Fuc(a1-2)Gal(b1-3)GalNAc(b1-3)Gal
# Procedure, shortened: as §1
# [4] = molecular target: Fuc(a1-2)Gal(b1-3)GalNAc(b1-3)Gal(a1-4)Gal(b1-4)Glc
# Procedure, shortened: as §1
# [5] = molecular target: Fuc(a1-2)Gal(b1-3)GalNAc(b1-4)[Neu5Ac(a2-3)]Gal(b1-4)Glc
# Procedure, shortened: as §1
# Fuc(a1-2)Gal(b1-3)GlcNAc = molecular target: Fuc(a1-2)Gal(b1-3)GlcNAc
# Procedure, shortened: as §1
# [6] = molecular target: Fuc(a1-2)Gal(b1-3)GlcNAc(b1-2)Man(a1-3)[Fuc(a1-2)Gal(b1-3)GlcNAc(b1-2)Man(a1-6)]Man(b1-4)GlcNAc(b1-4)GlcNAc
# Procedure, shortened: as §1
# [7] = molecular target: Fuc(a1-2)Gal(b1-3)GlcNAc(b1-2)Man(a1-3)[Fuc(a1-2)Gal(b1-3)GlcNAc(b1-2)Man(a1-6)]Man(b1-4)GlcNAc(b1-4)[Fuc(a1-6)]GlcNAc
# Procedure, shortened: as §1
# [8] = molecular target: Fuc(a1-2)Gal(b1-3)GlcNAc(b1-3)Gal(b1-4)Glc
# Procedure, shortened: as §1
# [9] = molecular target: Fuc(a1-2)Gal(b1-3)GlcNAc(b1-3)GalNAc
# Procedure, shortened: as §1
# [10] = molecular target: Fuc(a1-2)Gal(b1-3)GlcNAc(b1-3)[Fuc(a1-2)Gal(b1-3)GlcNAc(b1-6)]GalNAc
# Procedure, shortened: as §1
# [11] = molecular target: Fuc(a1-2)Gal(b1-3)GlcNAc(b1-3)[Gal(b1-4)GlcNAc(b1-6)]Gal(b1-4)Glc
# Procedure, shortened: as §1
# [12] = molecular target: Fuc(a1-2)Gal(b1-3)GlcNAc(b1-3)[Neu5Ac(a2-6)Gal(b1-4)GlcNAc(b1-6)]Gal(b1-4)Glc
# Procedure, shortened: as §1
# [13] = molecular target: Fuc(a1-2)Gal(b1-3)GlcNAc6S
# Procedure, shortened: as §1
# [14] = molecular target: Fuc(a1-2)Gal(b1-3)[Fuc(a1-4)]GlcNAc
# Procedure, shortened: as §1
# [15] = molecular target: Fuc(a1-2)Gal(b1-3)[Fuc(a1-4)]GlcNAc(b1-2)Man(a1-3)[Fuc(a1-2)Gal(b1-3)[Fuc(a1-4)]GlcNAc(b1-2)Man(a1-3)]Man(b1-4)GlcNAc(b1-4)GlcNAc
# Procedure, shortened: as §1
# [16] = molecular target: Fuc(a1-2)Gal(b1-3)[Fuc(a1-4)]GlcNAc(b1-2)Man(a1-3)[Fuc(a1-2)Gal(b1-3)[Fuc(a1-4)]GlcNAc(b1-2)Man(a1-6)]Man(b1-4)GlcNAc(b1-4)[Fuc(a1-6)]GlcNAc(b1-4)[Fuc(a1-6)]GlcNAc
# Procedure, shortened: as §1
# [17] = molecular target: Fuc(a1-2)Gal(b1-3)[Fuc(a1-4)]GlcNAc(b1-3)[Fuc(a1-3)[Gal(b1-4)]GlcNAc(b1-6)]Gal(b1-4)Glc
# Procedure, shortened: as §1
# [18] = molecular target: Fuc(a1-2)Gal(b1-3)[Fuc(a1-4)]GlcNAc(b1-3)[Gal(b1-4)GlcNAc(b1-6)]Gal(b1-4)Glc
# Procedure, shortened: as §1
# Fuc(a1-2)Gal(b1-4)Glc = molecular target: Fuc(a1-2)Gal(b1-4)Glc
# Procedure, shortened: as §1
# Fuc(a1-2)Gal(b1-4)Glc6S = molecular target: Fuc(a1-2)Gal(b1-4)Glc6S
# Procedure, shortened: as §1
# Fuc(a1-2)Gal(b1-4)GlcNAc = molecular target: Fuc(a1-2)Gal(b1-4)GlcNAc
# Procedure, shortened: as §1
# [19] = molecular target: Fuc(a1-2)Gal(b1-4)GlcNAc(b1-2)Man
# Procedure, shortened: as §1
# [20] = molecular target: Fuc(a1-2)Gal(b1-4)GlcNAc(b1-2)Man(a1-3)[Fuc(a1-2)Gal(b1-4)GlcNAc(b1-2)Man(a1-6)]Man(b1-4)GlcNAc(b1-4)GlcNAc
# Procedure, shortened: as §1
# [21] = molecular target: Fuc(a1-2)Gal(b1-4)GlcNAc(b1-2)Man(a1-3)[Fuc(a1-2)Gal(b1-4)GlcNAc(b1-2)Man(a1-6)]Man(b1-4)GlcNAc(b1-4)[Fuc(a1-6)]GlcNAc
# Procedure, shortened: as §1
# [22] = molecular target: Fuc(a1-2)Gal(b1-4)GlcNAc(b1-2)[Fuc(a1-2)Gal(b1-4)GlcNAc(b1-4)]Man(a1-3)[Fuc(a1-2)Gal(b1-4)GlcNAc(b1-2)Man(a1-6)]Man(b1-4)GlcNAc(b1-4)GlcNAc
# Procedure, shortened: as §1
# [23] = molecular target: Fuc(a1-2)Gal(b1-4)GlcNAc(b1-3)Gal(b1-4)GlcNAc
# Procedure, shortened: as §1
# [24] = molecular target: Fuc(a1-2)Gal(b1-4)GlcNAc(b1-3)Gal(b1-4)GlcNAc(b1-2)Man(a1-3)[Fuc(a1-2)Gal(b1-4)GlcNAc(b1-3)Gal(b1-4)GlcNAc(b1-2)Man(a1-6)]Man(b1-4)GlcNAc(b1-4)GlcNAc
# Procedure, shortened: as §1
binder,measurement,setting,value
B1,glycan array binding signal (z-score),Fuc(a1-2)Gal,0.05
same,glycan array binding signal (z-score),Fuc(a1-2)Gal(b1-3)GalNAc,-0.184
same,glycan array binding signal (z-score),[1],-0.104
same,glycan array binding signal (z-score),[2],-0.194
same,glycan array binding signal (z-score),[3],-0.067
same,glycan array binding signal (z-score),[4],-0.241
same,glycan array binding signal (z-score),[5],-0.181
same,glycan array binding signal (z-score),Fuc(a1-2)Gal(b1-3)GlcNAc,0.103
same,glycan array binding signal (z-score),[6],0.334
same,glycan array binding signal (z-score),[7],0.028
same,glycan array binding signal (z-score),[8],0.071
same,glycan array binding signal (z-score),[9],0.115
same,glycan array binding signal (z-score),[10],0.089
same,glycan array binding signal (z-score),[11],0.059
same,glycan array binding signal (z-score),[12],-0.046
same,glycan array binding signal (z-score),[13],0.108
same,glycan array binding signal (z-score),[14],-0.195
same,glycan array binding signal (z-score),[15],-0.113
same,glycan array binding signal (z-score),[16],-0.156
same,glycan array binding signal (z-score),[17],-0.26
same,glycan array binding signal (z-score),[18],-0.265
same,glycan array binding signal (z-score),Fuc(a1-2)Gal(b1-4)Glc,-0.046
same,glycan array binding signal (z-score),Fuc(a1-2)Gal(b1-4)Glc6S,-0.185
same,glycan array binding signal (z-score),Fuc(a1-2)Gal(b1-4)GlcNAc,-0.075
same,glycan array binding signal (z-score),[19],-0.018
same,glycan array binding signal (z-score),[20],0.171
same,glycan array binding signal (z-score),[21],-0.151
same,glycan array binding signal (z-score),[22],-0.101
same,glycan array binding signal (z-score),[23],-0.095
same,glycan array binding signal (z-score),[24],0.047

# Reference: the supplement of paper PMC8728848
